Results taken from PubChem BioAssay AID686978 (National Center for Advancing Translational Sciences (NCATS), 2013).
Where “and” joins values, the source holds several entries; their conditions need not be identical. Equal entries are not always repeated. Among all 420,000 compounds or so, about 64,000 (15%) were called active. Inconclusive results, whose numbers are uncertain, are shown with a selection of clear calls. Calls follow the shape of the dose curve; as a rule, active = well fitted inhibition curve with a large enough effect; inconclusive = small, poorly fitted or top-dose-only effect; inactive = flat fitted curve, though single readings scatter. Potencies beside an inconclusive call are fits to weak or partial responses and may not hold up.

assay: qHTS for Inhibitors of human tyrosyl-DNA phosphodiesterase 1 (TDP1): qHTS in cells in absence of CPT; conditions: DT40 Tdp1-/- hTDP1 cells, no CPT, ATP luminescence, 48 h; activity change, negative = growth inhibition: at 46.2 µM (top of the series) unless noted; also: nearly all actives have a fitted effect of over 55% in size
Summary of the method: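 Camptothecin absent (DMSO only). Human TDP1-complemented DT40 knockout cells, 400 cells/well, 37 °C for minimum 48 hr; ATP measured via CellTiter-Glo, 30 min dark incubation, luminescence.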
% is scaled to controls: 0 for no effect and ±100 for the full control effect; potency is read from the fitted curve at half-maximal effect; tags tell the direction and shape of the fitted curve.

Compound	Potency	activity change, negative = growth inhibition
Cn1c(=O)c2c(-c3ccccc3)n(CCCO)cc2n(C)c1=O	inactive	–
Cc1cccc(C)c1NC(=O)CSc1nc(C2CC2)nc2ccccc12	inconclusive: 29.1 µM [inhibitor, single point]	–
CS(=O)(=O)Nc1ccc([N+](=O)[O-])cc1OC1CCCCC1	inconclusive: 26.6 µM [inhibitor, partial curve, poor fit] and inconclusive: 50.1 µM [inhibitor, single point]	–
NC(N)=NCC1COc2ccccc2O1 (centres undefined)	inconclusive: 15 µM [inhibitor, partial curve, poor fit]	–
COc1ccc(C(Sc2ccccc2)c2ccccc2)cc1OC (centres undefined)	inactive	–
CC(C)(C)c1ccc(C(=O)NCCC(=O)N2CCC3(CC2)NCCc2[nH]cnc23)cc1	inactive	–
O=S(=O)(NCc1cccnc1)c1ccc(Cl)c(Cl)c1Cl	inconclusive: 29.1 µM [inhibitor, single point]	–
NC(=O)CSc1nc2sc3c(c2c2ncnn12)CCCC3	inconclusive: 29.1 µM [inhibitor, single point]	–
COc1ccc(S(=O)(=O)N2CCOCC2)cc1NC(=O)CN1CCC(Cc2ccccc2)CC1	active: 16.4 µM	–
CC1=CC(C)(C)Nc2ccc(OC(=O)C(Cc3ccccc3)N3C(=O)C4CCCCC4C3=O)cc21 (centres undefined)	inconclusive: 29.1 µM [inhibitor, single point]	–
Cc1sc2c(c1C)CN(C(C)(C)C)CN2C(=O)c1ccccc1	inconclusive: 23.1 µM [inhibitor, partial curve, poor fit]	–
CCOc1ccccc1CNC(=O)c1nn(CC)cc1[N+](=O)[O-]	inactive	–
CCN1CCCC1CNC(=O)Cn1nc(C)n2c(cc3cc(C)ccc32)c1=O (centres undefined)	inconclusive: 29.1 µM [inhibitor, single point]	–
COc1cc(SC)ccc1C(=O)NCCc1c[nH]c2ccccc12	inconclusive: 20.6 µM [inhibitor, single point]	–
FC(F)(F)c1cccnc1Oc1ccc(C2=NCCS2)cc1	inconclusive: 23.1 µM [inhibitor, partial curve]	–
CCC(CC)C(=O)c1c[nH]c(C(=O)OC)c1	inactive	–
CCCCCCc1c(C)nc(-n2[nH]c(C)c(CCO)c2=O)[nH]c1=O	inconclusive: 20.6 µM [inhibitor, single point]	–
CC(C)OCCCNC(=O)C1CCN(S(=O)(=O)c2ccc3nc4c(c(C(=O)O)c3c2)CCCCC4)CC1	inactive	–
Cc1ccc(OCCCNCCO)c(Br)c1	active: 4.61 µM	–
COc1ccc(CN2CC(C(=O)NCc3cccc(OC)c3)CC2=O)cc1 (centres undefined)	inactive	–
CC(C)(C)c1ccc(O)c(N=Cc2cccc([N+](=O)[O-])c2)c1	inconclusive: 22.4 µM [inhibitor, single point]	–
CCN(CC(=O)Nc1ccc(S(=O)(=O)N2CCCC2)cc1)Cc1ccccc1	inconclusive: 29.1 µM [inhibitor, single point]	–
COc1cc2oc(=O)c3c4c(cc5ccc(c1CCN(C)C)c2c53)OCO4	inconclusive: 1.64 µM [inhibitor, partial curve]	–
CC(=O)Nc1nc(-c2ccc3c(c2)CCO3)cs1	inconclusive: 14.6 µM [inhibitor, single point]	–
OCC1(CCc2ccccc2)CCN(Cc2cccn2-c2cccnc2)CC1	inconclusive: 29.1 µM [inhibitor, single point]	–

Compound	Potency	activity change, negative = growth inhibition
COc1ccc(S(=O)(=O)N2CCOCC2)cc1NC(=O)COC(=O)C1CCC1	inactive	–
CCOC(=O)C1(Cc2cccc(OC)c2)CCCN(C(=O)c2ccc(OC)o2)C1 (centres undefined)	inconclusive: 18.4 µM [inhibitor, single point]	–
C/C=C\C=C\C(=O)N1CC2(CC(c3cccc(NC(=O)/C(C)=C\C)c3)=NO2)C[C@H]1C(N)=O (some centres undefined)	inactive	–
COc1ccc(C)cc1NC(=O)c1nnn(-c2c(C)cccc2C)c1C	active: 16.4 µM	–
O=C(CNC(=O)c1cccs1)N/N=C/c1ccccc1[N+](=O)[O-]	inactive	–
Cc1ccc(OC(C)C(=O)Nc2ccccc2C(=O)N2CCN(C)CC2)cc1 (centres undefined)	inactive	–
O=C1[C@H]2[C@@H](c3ccc(F)cc3)N3C(=O)N(c4cccc(F)c4)C(=O)[C@@]3(Cc3ccc(Cl)cc3)[C@H]2C(=O)N1C1CCCCC1	inconclusive: 16.4 µM [inhibitor, single point]	–
CCOc1ccc2[nH]c(C(=O)N/N=C/c3cc(OC)c(OC)c(OC)c3)cc2c1	active: 16.4 µM	–
COc1ccc(C)cc1NC(=O)c1oc2ccc(S(=O)(=O)N3CCC4(CC3)OCCO4)cc2c1C	inconclusive: 4.61 µM [inhibitor, partial curve]	–
CCC[n+]1c2ccccc2cc2ccccc21	active: 2.59 µM	–
Cc1ccc(C)c(NC(=O)/C(C#N)=C/c2ccc(C(C)C)cc2)c1	inconclusive: 9.2 µM [inhibitor, partial curve]	–
C=CCNc1nc(C)nc(OC)n1	inactive	–
CCOC(=O)C(C(=O)NCc1ccc(C)cc1)c1ncc(C(F)(F)F)cc1Cl (centres undefined)	inconclusive: 0.92 µM [inhibitor, full curve]	–
CC(=O)Nc1ccc(NC(=O)CSc2nccn2Cc2ccccc2)cc1	inconclusive: 18.4 µM [inhibitor, single point]	–
O=C1CC2(CCN(C(=O)c3ccccc3[N+](=O)[O-])CC2)Oc2ccccc21	inconclusive: 25.9 µM [inhibitor, single point]	–
CSc1ncc(CN2CCCC(C(=O)c3ccc(C(C)(C)C)cc3)C2)cn1 (centres undefined)	active: 23.1 µM	–
c1ccc(Cn2ccnc2-c2ccco2)cc1	inconclusive: 23.1 µM [inhibitor, single point]	–
CCCCc1ccc2nc(NC(=O)OC)[nH]c2c1	active: 0.057 µM	–
CC(C)N(C(=O)Cn1cc(SCC(=O)Nc2ccccc2C(F)(F)F)c2ccccc21)C(C)C	inactive	–
O=C(Nc1cccnc1)c1ccccc1NS(=O)(=O)c1ccc(F)cc1	inconclusive: 29.1 µM [inhibitor, single point]	–
COc1cc(NC(=O)CN2Cc3ccccc3C2=O)cc(OC)c1OC	inactive	–
Cn1c(=O)n(C)c2cc(S(=O)(=O)NCc3ccco3)ccc21	inconclusive: 13 µM [inhibitor, partial curve]	–
COc1cc(-c2c(C#N)c(N)nc3[nH]c(=S)[nH]c(=O)c23)ccc1O	inactive	–
O=C(COC(=O)c1ccccc1F)NC1CCCC1	inactive	–
CC1CCCCN1S(=O)(=O)c1ccc(NC(=O)c2cccs2)cc1 (centres undefined)	inconclusive: 10 µM [inhibitor, partial curve]	–

Compound	Potency	activity change, negative = growth inhibition
Cc1cc(C(F)(F)F)nn1-c1nc(-c2ccco2)cc(C(F)(F)F)n1	inactive	–
CCOc1ccccc1NC(=O)CSc1nnc2ccc(-c3ccccn3)nn12	inconclusive: 23.1 µM [inhibitor, single point]	–
Cc1ccccc1C(=O)Nc1nnc(-c2ccco2)s1	inconclusive: 1.16 µM [inhibitor, full curve]	–
Cc1c(C(=O)NCCC2=CCCCC2)cccc1[N+](=O)[O-]	–	inconclusive: -32.7% [inhibitor]
C[N+]1(CC(=O)c2cccs2)CCOCC1	inactive	–
Cc1ccc2c(c1)c1nc3ccccc3nc1n2CCN1CCOCC1	active: 18.4 µM	–
O=C(NCC(c1ccco1)N1CCOCC1)C1CCCCC1 (centres undefined)	inactive	–
O=C(NC1CCCC1)c1cc(-c2ccc(F)cc2)on1	inconclusive: 14.6 µM [inhibitor, single point]	–
CCC(C)c1cc(S(=O)(=O)N2CCOCC2)ccc1OC (centres undefined)	inconclusive: 29.1 µM [inhibitor, single point]	–
O=C(Cn1ccc2cc(S(=O)(=O)N3CCCCC3)ccc21)NCc1ccccc1Cl	active: 20.6 µM	–
COc1ccc(C(=O)NCCCN2CCOCC2)cc1	inactive	–
Cc1ccc(OCCCCN2CCc3ccccc3C2)cc1	inconclusive: 25.9 µM [inhibitor, single point]	–
C[C@@H]1CN([C@@H](C)CO)C(=O)c2cc(Br)cnc2O[C@H]1CN(C)C(=O)c1ccc2c(c1)OCO2	inactive	–
O=C(CNC(=O)/C(=C\c1ccc(F)cc1)NC(=O)c1ccccc1)OCc1ccccc1	inconclusive: 18.4 µM [inhibitor, single point]	–
Cc1ccc(-c2nn(C)c(=O)c3ccccc23)cc1S(=O)(=O)N1CCCC1	inconclusive: 18.4 µM [inhibitor, single point]	–
COc1ccc(/C=N/OCC(=O)N2CC3(C)CC2CC(C)(C)C3)cc1 (centres undefined)	inactive	–
CSc1ccc(C(O)c2ncc(-c3cccc(F)c3)[nH]2)cc1 (centres undefined)	inconclusive: 20.6 µM [inhibitor, single point]	–
COc1cc(-c2noc(CCCC(=O)NCc3ccccc3)n2)cc(OC)c1OC	inconclusive: 29.1 µM [inhibitor, single point]	–
COC(=O)C1=C(C)Nc2ncnn2C1c1ccco1 (centres undefined)	inactive	–
O=C(Nc1ccc2ncccc2c1)Nc1ccc2ncccc2c1	active: 8.2 µM	–
COc1ccc(-c2nc3c4ccccc4ccn3c2CN2CCOCC2)cc1OC	inconclusive: 29.1 µM [inhibitor, single point]	–
Cc1ccc(-n2c(-c3ccccc3)nsc2=NC#N)cc1	inconclusive: 35.5 µM [inhibitor, single point]	–
CC(C)c1ccc(/C=C(/C#N)c2nnc(NC(=O)c3ccccc3)s2)cc1	inconclusive: 16.4 µM [inhibitor, single point]	–
CCOc1cccc(CC(=O)N2CCc3c([nH]c4ccccc34)C2c2ccc(SC)cc2)c1OCC (centres undefined)	inconclusive: 0.517 µM [inhibitor, full curve, poor fit]	–
